Target: Recombinant HIV-1 gp120 (LAV, CXCR4 monotropic, identical to NL4-3 gp120, glycosylated) (HIV-1 (LAV; identical to NL4-3 gp120), glycosylated)
Test: SPR; LAV gp120 immobilised by NHS/EDC coupling on a CM5 sensor chip (3500-5000 RU), Biacore 1000, HBS-EP buffer, flow rate 5 μl/min for 6 min; proteins tested at 1, 5, 10, 25 and 50 μg/ml
Settings: both partners purified

B1: mouse serum albumin, normal, non-modified (natural protein)
chain: not shown
**Q.** How did the response units turn out when B1 was run?
**A.** Its response units is less than 5 RU.
